Some of the results follow.
Target: T1, MBP-FoxP1dN (Mus musculus, UniProt P58462 326-579)
T1 sequence: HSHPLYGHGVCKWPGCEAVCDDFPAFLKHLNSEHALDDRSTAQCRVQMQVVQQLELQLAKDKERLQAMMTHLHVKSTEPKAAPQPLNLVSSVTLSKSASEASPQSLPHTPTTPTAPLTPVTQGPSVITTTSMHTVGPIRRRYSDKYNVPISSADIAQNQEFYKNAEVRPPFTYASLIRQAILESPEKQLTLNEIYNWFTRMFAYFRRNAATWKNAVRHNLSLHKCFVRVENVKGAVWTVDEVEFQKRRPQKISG
Test: PD-seq (MBP pull-down with sequencing); 20 mM Tris-HCl pH 7.5, 100 mM NaCl, 1.5 mM MgCl2, 0.4 uM protein, 0.1 uM dsDNA library, 30 min, room temperature, amylose pull-down; high values mean tight binding
Settings: protein: recombinant; tags: His6-MBP; chain copies: 2; dsDNA, one strand shown
Method in brief: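 The N-terminus-lacking fragment of mouse FoxP3 or FoxP1 carried a His6-MBP tag and was expressed in E. coli. At 0.4 µM it was incubated with 0.1 µM Klenow-filled degenerate double-stranded DNA library for 30 min at room temperature in Tris pH 7.5 buffer with NaCl and MgCl2, and complexes were caught on amylose resin, washed three times, released with proteinase K, PCR-barcoded and Illumina-sequenced. Binding is reads-per-million enrichment of pull-down over input with replicates pooled.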

Sequence	binding signal
GATGATTGTTCTCCCAGCTGATGAATTACTTCTATCGAGTAAACAAATTTTCCTAATCTTTCTGTTCAAGCGCCATCTAC	1.09 RPM ratio (pull-down/input)
GATGATTGTTCTCCCAGCTGATGAATTGATATCATCGAGTAAACAAATTTTCCTAATCTTTCTGTTCAAGCGCCATCTAC	1.21 RPM ratio (pull-down/input)
GATGATTGTTCTCCCAGCTGATGAATTCTCATAATCGAGTAAACAAATTTTCCTAATCTTTCTGTTCAAGCGCCATCTAC	1.23 RPM ratio (pull-down/input)
GATGATTGTTCTCCCAGCTGATGAATTGATACAGTCGAGTAAACAAATTTTCCTAATCTTTCTGTTCAAGCGCCATCTAC	1.12 RPM ratio (pull-down/input)
GATGATTGTTCTCCCAGCTGATGAATTGATTATTTCGAGTAAACAAATTTTCCTAATCTTTCTGTTCAAGCGCCATCTAC	1.39 RPM ratio (pull-down/input)
GATGATTGTTCTCCCAGCTGATGAATTGAAAGTCTCGAGTAAACAAATTTTCCTAATCTTTCTGTTCAAGCGCCATCTAC	0.817 RPM ratio (pull-down/input)
GATGATTGTTCTCCCAGCTGATGAATTCTATTCTTCGAGTAAACAAATTTTCCTAATCTTTCTGTTCAAGCGCCATCTAC	0.797 RPM ratio (pull-down/input)
GATGATTGTTCTCCCAGCTGATGAATTGAGCAGATCGAGTAAACAAATTTTCCTAATCTTTCTGTTCAAGCGCCATCTAC	0.835 RPM ratio (pull-down/input)
GATGATTGTTCTCCCAGCTGATGAATTTACGAGATCGAGTAAACAAATTTTCCTAATCTTTCTGTTCAAGCGCCATCTAC	1.19 RPM ratio (pull-down/input)
GATGATTGTTCTCCCAGCTGATGAATTGTTCGAATCGAGTAAACAAATTTTCCTAATCTTTCTGTTCAAGCGCCATCTAC	1.12 RPM ratio (pull-down/input)
GATGATTGTTCTCCCAGCTGATGAATTGATACCCTCGAGTAAACAAATTTTCCTAATCTTTCTGTTCAAGCGCCATCTAC	0.951 RPM ratio (pull-down/input)
GATGATTGTTCTCCCAGCTGATGAATTTACCCGTTCGAGTAAACAAATTTTCCTAATCTTTCTGTTCAAGCGCCATCTAC	1.08 RPM ratio (pull-down/input)
GATGATTGTTCTCCCAGCTGATGAATTTACGCAATCGAGTAAACAAATTTTCCTAATCTTTCTGTTCAAGCGCCATCTAC	1.58 RPM ratio (pull-down/input)
GATGATTGTTCTCCCAGCTGATGAATTATGGGTCTCGAGTAAACAAATTTTCCTAATCTTTCTGTTCAAGCGCCATCTAC	0.859 RPM ratio (pull-down/input)
GATGATTGTTCTCCCAGCTGATGAATTCGTCAGTTCGAGTAAACAAATTTTCCTAATCTTTCTGTTCAAGCGCCATCTAC	0.905 RPM ratio (pull-down/input)
GATGATTGTTCTCCCAGCTGATGAATTCGATCCGTCGAGTAAACAAATTTTCCTAATCTTTCTGTTCAAGCGCCATCTAC	0.886 RPM ratio (pull-down/input)
GATGATTGTTCTCCCAGCTGATGAATTCACCAACTCGAGTAAACAAATTTTCCTAATCTTTCTGTTCAAGCGCCATCTAC	0.907 RPM ratio (pull-down/input)
GATGATTGTTCTCCCAGCTGATGAATTTGGTCCTTCGAGTAAACAAATTTTCCTAATCTTTCTGTTCAAGCGCCATCTAC	0.877 RPM ratio (pull-down/input)
GATGATTGTTCTCCCAGCTGATGAATTGAACACATCGAGTAAACAAATTTTCCTAATCTTTCTGTTCAAGCGCCATCTAC	1.25 RPM ratio (pull-down/input)
GATGATTGTTCTCCCAGCTGATGAATTAGCGGCGTCGAGTAAACAAATTTTCCTAATCTTTCTGTTCAAGCGCCATCTAC	0.886 RPM ratio (pull-down/input)

Sequence	binding signal
GATGATTGTTCTCCCAGCTGATGAATTATCTCCATCGAGTAAACAAATTTTCCTAATCTTTCTGTTCAAGCGCCATCTAC	0.936 RPM ratio (pull-down/input)
GATGATTGTTCTCCCAGCTGATGAATTCCTAAACTCGAGTAAACAAATTTTCCTAATCTTTCTGTTCAAGCGCCATCTAC	0.939 RPM ratio (pull-down/input)
GATGATTGTTCTCCCAGCTGATGAATTACACATCTCGAGTAAACAAATTTTCCTAATCTTTCTGTTCAAGCGCCATCTAC	1.26 RPM ratio (pull-down/input)
GATGATTGTTCTCCCAGCTGATGAATTGCGTACTTCGAGTAAACAAATTTTCCTAATCTTTCTGTTCAAGCGCCATCTAC	1.15 RPM ratio (pull-down/input)
GATGATTGTTCTCCCAGCTGATGAATTTAACTGTTCGAGTAAACAAATTTTCCTAATCTTTCTGTTCAAGCGCCATCTAC	0.912 RPM ratio (pull-down/input)
GATGATTGTTCTCCCAGCTGATGAATTCGCGAATTCGAGTAAACAAATTTTCCTAATCTTTCTGTTCAAGCGCCATCTAC	0.86 RPM ratio (pull-down/input)
GATGATTGTTCTCCCAGCTGATGAATTGTTTCCGTCGAGTAAACAAATTTTCCTAATCTTTCTGTTCAAGCGCCATCTAC	1.33 RPM ratio (pull-down/input)
GATGATTGTTCTCCCAGCTGATGAATTCTGATAGTCGAGTAAACAAATTTTCCTAATCTTTCTGTTCAAGCGCCATCTAC	0.872 RPM ratio (pull-down/input)
GATGATTGTTCTCCCAGCTGATGAATTTGGACATTCGAGTAAACAAATTTTCCTAATCTTTCTGTTCAAGCGCCATCTAC	0.95 RPM ratio (pull-down/input)
GATGATTGTTCTCCCAGCTGATGAATTCTCGTTGTCGAGTAAACAAATTTTCCTAATCTTTCTGTTCAAGCGCCATCTAC	1.07 RPM ratio (pull-down/input)
GATGATTGTTCTCCCAGCTGATGAATTAAGTGACTCGAGTAAACAAATTTTCCTAATCTTTCTGTTCAAGCGCCATCTAC	1.01 RPM ratio (pull-down/input)
GATGATTGTTCTCCCAGCTGATGAATTGCAGTCATCGAGTAAACAAATTTTCCTAATCTTTCTGTTCAAGCGCCATCTAC	1.15 RPM ratio (pull-down/input)
GATGATTGTTCTCCCAGCTGATGAATTCTCCGGCTCGAGTAAACAAATTTTCCTAATCTTTCTGTTCAAGCGCCATCTAC	0.71 RPM ratio (pull-down/input)
GATGATTGTTCTCCCAGCTGATGAATTCTGAAACTCGAGTAAACAAATTTTCCTAATCTTTCTGTTCAAGCGCCATCTAC	0.895 RPM ratio (pull-down/input)
GATGATTGTTCTCCCAGCTGATGAATTCTATCTATCGAGTAAACAAATTTTCCTAATCTTTCTGTTCAAGCGCCATCTAC	0.89 RPM ratio (pull-down/input)
GATGATTGTTCTCCCAGCTGATGAATTGCCAAAATCGAGTAAACAAATTTTCCTAATCTTTCTGTTCAAGCGCCATCTAC	1.18 RPM ratio (pull-down/input)
GATGATTGTTCTCCCAGCTGATGAATTAAAGGCATCGAGTAAACAAATTTTCCTAATCTTTCTGTTCAAGCGCCATCTAC	1.09 RPM ratio (pull-down/input)
GATGATTGTTCTCCCAGCTGATGAATTCGTACCTTCGAGTAAACAAATTTTCCTAATCTTTCTGTTCAAGCGCCATCTAC	0.872 RPM ratio (pull-down/input)
GATGATTGTTCTCCCAGCTGATGAATTGTATAGCTCGAGTAAACAAATTTTCCTAATCTTTCTGTTCAAGCGCCATCTAC	0.929 RPM ratio (pull-down/input)
GATGATTGTTCTCCCAGCTGATGAATTTCAGCTGTCGAGTAAACAAATTTTCCTAATCTTTCTGTTCAAGCGCCATCTAC	0.889 RPM ratio (pull-down/input)

Source: publication PMC12820563, “FoxP3 forms a head-to-head dimer in vivo and stabilizes its multimerization on adjacent microsatellites”
